Values quoted from earlier work, collected in US8816078B2, “Acidic gas removal by aqueous amine solvents” (Board of Regents, The University of Texas System, priority 2010, dated 2014).

Details: 150° C.; 2 weeks; α 0.4 moles CO2 per mole alkalinity (Davis, 2009); cited from earlier work

For `NCCO` [MEA, monoethanolamine], the “loss of the initial amine” value is given as 67%.
